Data as given in PMC4336329 (PLoS ONE, 2015).
Among all 310,000 compounds or so, about 2,200 (0.71%) showed an effect of 50% or more. The effect is printed as a negative number. Some of the results follow.

target: human ether-à-go-go-related gene (hERG) potassium channel (human, UniProt Q12809); assay: primary screen, population patch clamp on CHO cells stably expressing hERG
Sequence (Q12809 whole entry, looked up): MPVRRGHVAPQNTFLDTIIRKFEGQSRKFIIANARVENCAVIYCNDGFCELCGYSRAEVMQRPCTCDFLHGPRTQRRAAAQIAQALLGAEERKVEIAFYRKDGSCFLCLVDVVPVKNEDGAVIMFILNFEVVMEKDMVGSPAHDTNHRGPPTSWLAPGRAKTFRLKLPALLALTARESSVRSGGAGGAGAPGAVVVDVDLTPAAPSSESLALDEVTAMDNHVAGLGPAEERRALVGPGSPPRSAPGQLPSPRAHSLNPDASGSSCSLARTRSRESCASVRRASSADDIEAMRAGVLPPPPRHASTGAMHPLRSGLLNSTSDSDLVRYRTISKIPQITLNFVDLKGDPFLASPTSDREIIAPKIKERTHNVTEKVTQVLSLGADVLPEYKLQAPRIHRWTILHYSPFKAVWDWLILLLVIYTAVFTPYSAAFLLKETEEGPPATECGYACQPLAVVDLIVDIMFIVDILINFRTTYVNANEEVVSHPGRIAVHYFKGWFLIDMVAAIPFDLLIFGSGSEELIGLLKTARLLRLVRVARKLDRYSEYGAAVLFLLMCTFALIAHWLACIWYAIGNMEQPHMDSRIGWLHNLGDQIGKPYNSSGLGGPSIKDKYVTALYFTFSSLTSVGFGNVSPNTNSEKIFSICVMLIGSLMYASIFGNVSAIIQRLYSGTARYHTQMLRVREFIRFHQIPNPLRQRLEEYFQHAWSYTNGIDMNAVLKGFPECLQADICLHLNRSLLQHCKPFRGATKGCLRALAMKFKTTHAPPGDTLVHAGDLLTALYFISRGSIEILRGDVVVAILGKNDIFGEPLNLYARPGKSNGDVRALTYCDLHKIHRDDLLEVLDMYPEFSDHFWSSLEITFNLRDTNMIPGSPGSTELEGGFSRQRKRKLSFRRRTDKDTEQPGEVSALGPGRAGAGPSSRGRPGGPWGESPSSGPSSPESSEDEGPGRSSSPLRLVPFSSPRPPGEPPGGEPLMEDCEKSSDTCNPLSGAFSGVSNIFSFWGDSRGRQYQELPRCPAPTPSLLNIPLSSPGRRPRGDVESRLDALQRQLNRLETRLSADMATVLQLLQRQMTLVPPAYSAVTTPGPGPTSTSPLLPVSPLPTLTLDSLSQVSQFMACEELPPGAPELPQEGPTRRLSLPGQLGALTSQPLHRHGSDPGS

Row | Structure (SMILES) | hERG current change (%, negative = inhibition) at 1uM [%]
1 | COc1ccc(C(=O)NCC(=O)OCC(=O)Nc2cc(OC)ccc2OC)cc1 | 11.1
2 | COc1cccc(C(=O)OCC(=O)Nc2ccccc2N2CCOCC2)c1 | 4.76
3 | CSc1nc2ccccc2cc1/C=C(\C#N)c1cccc(C)c1 | 7.9
4 | Cc1c(C)c2ccc(OCC(=O)NCc3ccccn3)cc2oc1=O | 7.43
5 | O=C(Nc1n[nH]c(=S)s1)c1ccc2ccccc2c1 | 17.5
6 | Cc1onc(-c2ccccc2)c1C(=O)Nc1ccc(OC(C)C)cc1 | -6.66
7 | COc1ccc(S(=O)(=O)CCc2nnc(NC(=O)c3cccs3)s2)cc1 | 13.1
8 | O=C(N/N=C/C(c1ccccc1)c1ccccc1)c1ccccc1F | 10.3
9 | O=C(CCn1c(=O)c2ccccc2n(CC(=O)NC2CCCC2)c1=O)NCCc1ccc(Cl)cc1 | 10.5
10 | COc1ccc(-c2cn[nH]c2C)cc1 | 10.9
11 | Cc1ccccc1-n1c(CNc2ccccc2)nc2ccccc2c1=O | 14.1
12 | O=C(CCCC(=O)N1CCN(c2ccc([N+](=O)[O-])cc2)CC1)c1ccccc1 | -66
13 | CCC(=O)NCCc1nc2ccccc2n1CC(=O)c1ccccc1 | 11.5
14 | CCC(=O)NC(=S)Nc1ccc(NC(=O)c2ccc(OC)cc2)cc1 | 12.4
15 | CC(C)(C)c1ccc(COC(=O)CN2C(=O)NC3(CCCC3)C2=O)cc1 | -2.21
16 | COC(=O)c1cccc(NC(=O)Nc2ccccc2OC)c1 | 4.27
17 | CC(C)=CCN1CCNC(=O)C1CC(=O)NCc1nc(C)c(C)s1 (stereo not drawn) | 4.66
18 | COc1ccc(CCNC(=O)C(C)n2nc(C)c3c(C)n(-c4ccc(C)cc4)nc3c2=O)c(OC)c1 (stereo not drawn) | -6.45
19 | COc1ccc(/C=N/NC(=O)Nc2cccc3nsnc23)c(OC)c1 | 3.18

Row | Structure (SMILES) | hERG current change (%, negative = inhibition) at 1uM [%]
20 | CC(C)(C)NC(=O)c1cc(NC(=O)c2ccco2)cc(NC(=O)c2ccco2)c1 | -5.87
21 | CC(=O)Nc1ccc(S(=O)(=O)N(C#N)c2nc(C)cc(C)n2)cc1 | 16.3
22 | CC(C)n1cc(CN2CCC(n3nccc3NC(=O)C3CCCC3)CC2)cn1 | 6.1
23 | O=C(c1ccc2oc(CCc3ccccc3)nc2c1)N1CCC(O)CC1 | 14
24 | CN(C)S(=O)(=O)c1ccc(C(=O)NC2CCCc3ccccc32)cc1 (stereo not drawn) | 7.14
25 | CCCNC(=O)CSc1nc2ccccc2c(=O)n1CCC | 4.07
26 | CCC(=O)N1CCc2cc(S(=O)(=O)NCCN3CCC(C)CC3)ccc21 | 3.14
27 | Cc1cccn2c(=O)c(C(=O)NC3CCCCC3C)c(O)nc12 (stereo not drawn) | -5.55
28 | O=C(Nc1nnc(CCc2ccccc2)s1)c1ccccc1F | 13.8
29 | COc1cc(-c2nc(-c3ccc(Br)o3)no2)cc(OC)c1OC | 19.3
30 | N#C/C(=C(/O)COC(=O)CCCNC(=O)c1ccc(Cl)cc1)c1nc2ccccc2[nH]1 | 9.79
31 | CCCCn1c(-c2nn(C)c(C)c2Cl)n[nH]c1=S | 6.33
32 | CC(C)(C)CC(=O)Nc1ccccc1N1CCN(c2ccc(F)cc2)CC1 | 11.6
33 | Cc1ccc2oc(C(=O)NCCC3CCCCO3)c(C)c2c1 (stereo not drawn) | 5.65
34 | CCOC(=O)C[C@H]1c2ccc(C(F)(F)F)cc2S(=O)(=O)N1c1cccc(OC)c1 | 0.0331
35 | CCCCc1c(C)nc(Nc2ccc(OC)cc2)[nH]c1=O | -1.49
36 | COC(=O)c1ccccc1-c1c2ccc(=[NH2+])cc-2oc2cc(N)ccc12.O.[Cl-] | -5.95
37 | C=CCn1c(C)cc(-c2csc(NC(=O)C3=COCCO3)n2)c1C | 11.4
38 | Nc1nnnn1CC(=O)N/N=C/C=C/c1ccccc1 | 13.1

Row | Structure (SMILES) | hERG current change (%, negative = inhibition) at 1uM [%]
39 | CC1(C)Cc2ccccc2-c2nnc(-c3cccc(O)c3)n21 | 17
40 | Cc1ccc(C(=O)N2CCN(c3ccc(NC(=O)c4cccs4)cc3)CC2)cc1 | -8.11
41 | CC(C)(C)n1nnnc1C(c1cccs1)N(Cc1cccnc1)CC1CCCO1 (stereo not drawn) | -1.67
42 | CCOC(=O)c1cnc(-c2ccccc2)nc1-c1ccccc1 | 10.6
43 | FC(F)(F)c1cccc(Cc2noc(CN(Cc3ccccn3)CC3CCCO3)n2)c1 (stereo not drawn) | -5.31
44 | O=c1oc(-c2ccccc2)nc2ccsc12 | 5.1
45 | CCCc1cc(=O)oc2cc(OCc3ccc(C(=O)O)o3)ccc12 | 12.6
46 | COc1cccc(NC(=S)NC(=O)/C=C/c2ccco2)c1 | 8.72
47 | CN1CCCN(C(=O)c2cccc(Br)c2)CC1 | 16.5
48 | CCOc1ccc(NC(=O)C2CCN(C(=O)NCc3ccccc3)CC2)cc1 | -5.56
49 | O=C(NCC1CCCO1)c1c(O)c2ccccc2[nH]c1=O (stereo not drawn) | 7.7
50 | O=C(c1cnc2n(c1=O)CCS2)N(c1ccccc1)C1CCCCC1 | 12.9
51 | Cc1cc(NC(=O)c2cc3n(n2)C(C(F)(F)F)CC(c2ccco2)N3)n(-c2ccccc2)n1 (stereo not drawn) | 13.9
52 | O=C(Nc1ccc(Cl)cc1)/C(=C1\CCCN1)[N+](=O)[O-] | 12.3
53 | CSc1nnc(C2CCCN(CC(=O)Nc3ccccc3N3CCOCC3)C2)n1C(C)C (stereo not drawn) | 7.36
54 | Cc1csc(CN(C)C(=O)CC2C(=O)NCCN2CC(C)(C)C)n1 (stereo not drawn) | 8.42
55 | Nc1cc2c(cc1[N+](=O)[O-])OCCO2 | 12.7
56 | CSCC[C@H](NS(=O)(=O)c1ccc(C)cc1)C(=O)N1CCC(C(=O)N[C@@H](Cc2ccc(O)cc2)C(=O)O)CC1 | 9.25
57 | COc1ccc(NC(=O)/C=C/c2c(Cl)nc3ccccn23)cc1 | -17.7
